Test results as given in US20240226120A1 (priority 2020, published 2024).

Test system: interferon and interferon-induced antiviral effector gene expression in cells expressing M-protein
Test: qPCR of interferons and effector gene expression, M-protein
Type: cell-based, human
Conditions: 1 μM CBD vs vehicle alone, 24 hours (FIG. 19)

SMILES: C=C(C)[C@@H]1CCC(C)=C[C@H]1c1c(O)cc(CCCCC)cc1O [Cannabidiol, 2-[(1R,6R)-3-Methyl-6-(1-methylethenyl)-2-cyclohexen-1-yl]-5-pentyl-1,3-benzenediol]
- IFIT1 expression: significantly increases
